About 11,000 (3.1%) of roughly 360,000 compounds were called active. Inconclusive means that the source gave no clear call. Such entries were picked first, then a sample of the others. The call rests on the fitted dose curve; in most records, active means well fitted inhibition curve with a large enough effect; inconclusive means small, poorly fitted or top-dose-only effect; inactive means no such curve, though single readings can be large or run the other way. Potencies of inconclusive entries are left out as doubtful fits.
target: Schistosoma mansoni thioredoxin glutathione reductase (TGR) (UniProt Q962Y6); assay: qHTS Assay for the Inhibitors of Schistosoma Mansoni Peroxiredoxins; details: purified TGR, DTNB reduction, TNB absorbance 405 nm; series mostly up to 114 µM; further: nearly all actives have a fitted effect of over 60% in size
Outline: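 TGR 20 nM + NADPH 100 uM (dispensed conc.), cpd preinc 15 min RT; start with NADPH (500 uM addition) then DTNB (15 mM addition). Kinetic TNB absorbance, 405 nm filter. Four-parameter Hill fit across titration.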
Potency means the concentration at half of the fitted maximal effect; tags describe the fitted curve by direction and shape.

SMILES	Potency
O=C(CS(=O)(=O)c1ccc(Cl)cc1)Nc1nnc(-c2cccs2)o1	inconclusive [inhibitor, full curve]
COc1ccc2oc(C(=O)N(Cc3ccco3)Cc3cccs3)c(C)c2c1	inconclusive [inhibitor, partial curve]
Cc1nn(C)cc1S(=O)(=O)NCc1ccccc1Cl	inactive
Cc1ccccc1CNC(=O)CC1C(=O)NCCN1CC1CCCCC1 (stereo not drawn)	inconclusive [inhibitor, partial curve]
Cc1oc(C(=O)O)cc1CSCc1cc(C(=O)O)c(C)o1	active: 44.7 µM
O=C(Cc1c(O)c2ccccc2[nH]c1=O)NC1CCCCCC1	inconclusive [inhibitor, partial curve]
C=CCNC(=S)/C(=C(\[O-])c1ccc(Cl)cc1)[n+]1ccccc1	inconclusive [inhibitor, partial curve]
O=C(COc1ccc(Cl)cc1)NCC(c1ccco1)S(=O)(=O)c1ccccc1 (stereo not drawn)	inconclusive [inhibitor, partial curve]
Cc1ccc(C)c(NNC(N)=S)c1	inactive
Cc1cc(NC(=O)CC(C)(C)C)nc2c1c(=O)oc1ccccc12	inconclusive [inhibitor, full curve]
CCOc1ccc(S(=O)(=O)N2CCCC(C(=O)NCc3cccnc3)C2)cc1 (stereo not drawn)	inconclusive [inhibitor, partial curve]
Cc1ccc(C(=O)C2=C(O)C(=O)N(c3ncccn3)C2c2ccccc2F)o1 (stereo not drawn)	inconclusive [inhibitor, partial curve]
Cn1c(SCn2nnc3ccccc3c2=O)nc2ccccc2c1=O	inactive
O=C(CSc1ccccc1C(=O)O)c1ccc([N+](=O)[O-])cc1	inconclusive [inhibitor, full curve]
O=C(Nc1oc2ccccc2c(=O)c1-c1ccc(Br)cc1)c1ccco1	inconclusive [inhibitor, full curve]
NS(=O)(=O)c1ccc(Nc2c([N+](=O)[O-])cncc2[N+](=O)[O-])cc1	inconclusive [inhibitor, partial curve, poor fit]
O=C1CCCc2c1cc(C(=O)Nc1ccc(Br)cn1)c(=O)n2-c1ccccc1	active: 17.8 µM
CCOc1cc(N2CCOCC2)c(OCC)cc1NC(=O)c1ccccc1	inactive
FC(F)(F)c1ccccc1NC(=S)Nc1cccc(Cl)c1	active: 25.1 µM
Cc1cc(C)c(S(=O)(=O)NCCSCc2ccco2)c(C)c1	active: 12.6 µM
COc1ccc(Cc2nnc(SCC(=O)c3c(N)n(C4CC4)c(=O)[nH]c3=O)o2)cc1	inactive
Cn1c(CCNC(=O)c2ccco2)nc2cc(NS(=O)(=O)c3ccccc3)ccc21	inconclusive [inhibitor, full curve]
Cc1ccc(Nc2nc(N)nc(CN3CCCCCC3)n2)cc1	active: 39.8 µM
CCCC(=O)Nc1nnc(-c2ccco2)s1	inconclusive [inhibitor, partial curve]
CC(C)CN1CCNC(=O)C1CC(=O)NCCc1cnn(-c2ccccc2)c1 (stereo not drawn)	inconclusive [inhibitor, partial curve]

SMILES	Potency
CSc1ccc(CN2CCN(Cc3ccc([N+](=O)[O-])cc3)CC2)cc1	inactive
CCCCn1c(SCC(=O)c2ccc3c(c2)OCCO3)nnc1-c1ccoc1C	inconclusive [inhibitor, full curve, poor fit]
COc1ccc(NC(=S)Nc2ccc(S(=O)(=O)N3CCOCC3)cc2)c(OC)c1	inconclusive [inhibitor, partial curve]
CCCCn1c(O)c(/C=C2\C=Nc3ccccc32)c(=O)[nH]c1=O	inconclusive [inhibitor, partial curve]
CC(=O)Nc1cccc(NC(=O)CSc2ccc(-c3ccccn3)nn2)c1	inactive
O=C1NC(=S)S/C1=C\C=C\c1ccc([N+](=O)[O-])o1	active: 2.24 µM
Cc1ccc(NC(=O)C2CCN(C(=O)N3CCOc4ccccc43)CC2)cc1	inactive
O=C(O)c1ccccn1	inactive
OC(COCC(F)(F)C(F)(F)C(F)(F)C(F)F)Cn1c2ccc(Cl)cc2c2cc(Cl)ccc21 (stereo not drawn)	inactive
CCOc1ccc(C(C)=O)cc1COC(=O)c1ccc2c(c1)NC(=O)CS2	active: 11.2 µM
Cc1ccc(CN(C)C(=O)CCNS(=O)(=O)c2ccccc2)o1	inconclusive [inhibitor, partial curve]
O=C(Cc1cccc2ccccc12)NNC(=O)c1ccc(Br)o1	inconclusive [inhibitor, partial curve]
O=C1N(c2ccccc2)C[C@@H]2C[C@@H](c3cccs3)N3CCC[C@@]123	active: 15.8 µM
O=C(c1ccco1)N1CCN(C(=O)C2c3ccccc3Oc3ccccc32)CC1	inconclusive [inhibitor, partial curve, poor fit]
CC(C)c1onc(C(=O)N2CCCCC2C)c1[N+](=O)[O-] (stereo not drawn)	inconclusive [inhibitor, single point]
O=C(Nc1ccc2nc3n(c(=O)c2c1)CCCCC3)c1ccccc1[N+](=O)[O-]	inactive
COc1ccc(N2C(=O)CC(N3CCC(C(N)=O)CC3)C2=O)cc1 (stereo not drawn)	active: 14.1 µM
CC(C)[C@H](NC(=O)[C@H]1N2C(=O)c3ccccc3C2SC1(C)C)C(=O)NCc1ccco1 (stereo partly drawn)	inconclusive [inhibitor, partial curve]
CNC(=S)N(CCCN(C)C)Cc1cc2cc3c(cc2[nH]c1=O)OCCO3	inconclusive [inhibitor, full curve, poor fit]
O=C1c2ccccc2-c2ncnc3c(N4CCOCC4)cc(N4CCOCC4)c1c23	inactive
Cc1ccc(C(=O)CCNc2ccc(Br)cc2)o1	inconclusive [inhibitor, partial curve]
Cn1c(-c2ccco2)nc2cc3ccccc3cc21	inconclusive [inhibitor, full curve]
COc1ccc2oc(=O)c(-c3nnc(NCc4ccco4)s3)cc2c1	inconclusive [inhibitor, partial curve]
Cc1ccc(S(=O)(=O)CCC(=O)Nc2ccc(Br)cc2)cc1	inactive
CC(C)(C)c1cc(CN2CCN(CCC#N)CC2)cc(C(C)(C)C)c1O	active: 2.24 µM

SMILES	Potency
COc1cc(OC)nc(NC(=O)CCl)n1	inconclusive [inhibitor, partial curve]
CC(C)Oc1cccc(C(=O)C2CCCN(S(C)(=O)=O)C2)c1 (stereo not drawn)	inactive
CCc1sc(Nc2cccc(Cl)c2)nc1-c1cc2cccc(OC)c2oc1=O	inactive
Cc1[nH][nH]c(=O)c1C(c1ccc(-c2ccccc2C(=O)O)o1)c1c(C)[nH][nH]c1=O	inconclusive [inhibitor, partial curve]
Cc1csc2ncc(C(=O)NCc3ccco3)c(=O)n12	active: 44.7 µM
COc1ccc(Cn2c(-c3ccco3)nc3oc4cc(OC)ccc4c(=O)c3c2=O)cc1	inconclusive [inhibitor, partial curve]
O=C(O)c1cc(-c2ccco2)[nH]n1	active: 50.1 µM
CN1C(=O)C(Cc2cccs2)C(=O)N(C)C1=O	inconclusive [inhibitor, partial curve]
COc1ccc(N2C(=O)[C@@H]3[C@H](C2=O)[C@H](C(C)=O)N2c4ccccc4C=C[C@@H]32)cc1	inconclusive [inhibitor, partial curve]
CCc1ccc(CNC(=O)c2ccc(CS(=O)c3ccc(Br)cc3)o2)cc1 (stereo not drawn)	inconclusive [inhibitor, partial curve]
COc1ccc(-c2c(C)c3ccc(O)c(CN4CCCCC4)c3oc2=O)cc1OC	inconclusive [inhibitor, single point]
Cc1ccc2nc(N(Cc3cccnc3)C(=O)c3ccco3)sc2c1	inactive
O=C(OCc1ccccn1)c1ccc(COc2ccc3ccccc3c2)o1	inconclusive [inhibitor, partial curve]
O=C(Oc1ccc(N(C(=O)c2ccncc2)S(=O)(=O)c2ccc(F)cc2)cc1)c1ccncc1	active: 28.2 µM
O=C1NC(=O)N(Cc2ccccc2)C(=O)/C1=C/c1cnn(-c2ccccc2)c1	inconclusive [inhibitor, full curve]
O=C(CCl)N1c2ccccc2CCc2ccccc21	active: 11.2 µM
COc1ccc(C(=O)Nc2cccc(/C(C)=N\NC(=O)c3ccoc3C)c2)cc1OC	inactive
C=CCNC(=S)/C(=C(/[O-])c1ccccc1Br)[n+]1ccccc1	inconclusive [inhibitor, full curve, poor fit]
CN1C(=O)C(C)(C)c2cc(S(=O)(=O)N3CCCC(C(=O)NCc4ccc(F)cc4)C3)ccc21 (stereo not drawn)	inactive
COc1ccc(/C=C/C(=O)O)cc1S(=O)(=O)NCc1ccco1	inconclusive [inhibitor, partial curve]
COc1ccc(NC(=O)C(NC(=O)Cc2cccs2)c2ccc(OC)cc2)cc1 (stereo not drawn)	inactive
O=C(O)c1ccccc1C(=O)Nc1n[nH]c(=S)s1	inconclusive [inhibitor, partial curve]
COc1ccccc1CNc1nc2nc3c(c(=O)n2[nH]1)CCC3	inconclusive [inhibitor, partial curve]
